The results in this text go back to the supplement of paper PMC9334596.

Several values for one entry are separate records, joined by “and”; a condition that tells them apart may be missing. Identical values can stand only once. Over roughly 5,300 compounds, “PER2::LUC luminescence relative to vehicle control” has its median near 0.96; the highest 2% begin near 1.3. Some of the results follow.

The assay deals with mPer2Luc MEF. Description: PER2::LUC luminescence relative to vehicle control (fold of vehicle); higher = higher PER2::LUC reporter signal. The following applies: 10 µM. In short, it runs like this:
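Mouse embryonic fibroblasts carrying the mPer2Luc reporter were seeded at ~3000 cells per well in 384-well plates, 48 h before compounds from commercial libraries were added at 10 μM. Cells were grown in DMEM with 10% FBS at 37 °C and 5% CO2. Luminescence was read with the ONE-Glo luciferase assay system 24 h and 30 h after treatment, followed by an alamarBlue viability assay. The value is PER2::LUC luminescence as fold of vehicle control.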

With `Cc1ncc(CNC(=O)N(CCCl)N=O)c(N)n1`, the “PER2::LUC luminescence” value (time after treatment 24 h) is 1.04 and 1.05; the “PER2::LUC luminescence” value (time after treatment 30 h) is 1.04 and 0.853.
Consider `CN1CCCCC1c1ccc(-c2cccnc2)nc1` (configuration not stated), for which the “PER2::LUC luminescence” value by setting is: (time after treatment 24 h) 1.07; (time after treatment 30 h) 1.05.
As to `C[C@H]1CCC/C=C/[C@@H]2C[C@H](O)C[C@H]2[C@H](O)/C=C/C(=O)O1`, the “PER2::LUC luminescence” value is, setting by setting: (time after treatment 24 h) 1.15; (time after treatment 30 h) 1.13.
On the same counts, the results for `CCC12C=CCN3CC[C@@]4(c5ccc(OC)cc5N(C)[C@H]4[C@@](O)(C(=O)OC)[C@@H]1OC(C)=O)[C@@H]32` (some centres not stated) are 0.932 and 0.959.
Take `CC[C@@H](C)C(=O)O[C@H]1[C@H](O)[C@H]2[C@@H](CN3C[C@@H](C)CC[C@H]3[C@@]2(C)O)[C@@H]2C[C@]34O[C@]5(O)[C@@H](OC(=O)[C@](C)(O)[C@@H](C)O)CC[C@@]3(C)[C@@H]5[C@@H](OC(C)=O)[C@@H](OC(C)=O)[C@H]4[C@@]21O` (stereo in doubt): the “PER2::LUC luminescence” value (time after treatment 24 h) worked out at 1.02 and the “PER2::LUC luminescence” value (time after treatment 30 h) is 0.887.
Turning to `C[N+](C)(C)CC#CCOC(=O)Nc1cccc(Cl)c1`, the “PER2::LUC luminescence” value was 1.01 (time after treatment 24 h) and 0.91 (time after treatment 30 h).
For `CN1C[C@@H](NS(=O)(=O)N(C)C)C[C@@H]2c3cccc4c3c(cn4C)C[C@H]21`, in that order: 0.98 and 0.864.
Take `C[C@@H]1C[C@H]2CC[C@H](O2)[C@H](C)C(=O)O[C@@H](C)C[C@@H]2CC[C@@H](O2)[C@@H](C)C(=O)O[C@H](C)C[C@H]2CC[C@@H](O2)[C@H](C)C(=O)O[C@@H](C)C[C@@H]2CC[C@@H](O2)[C@@H](C)C(=O)O1`: the “PER2::LUC luminescence” value reads like this: (time after treatment 24 h) 0.195; (time after treatment 30 h) 0.197.
On the same counts, the results for `CC(C)(O)C(Cl)(Cl)Cl` are 0.988 and 0.812.
Regarding `Oc1cccc2cccnc12`, the “PER2::LUC luminescence” value was 1.05 and 0.704 (time after treatment 24 h); 0.978 and 1.09 (time after treatment 30 h).
Take `CN1C(=O)CN=C(c2ccccc2Cl)c2cc(Cl)ccc21`: the “PER2::LUC luminescence” value reads like this: (time after treatment 24 h) 0.902; (time after treatment 30 h) 0.953.
For `N#C/C(=C\c1ccc(O)cc1)C(=O)O`, in that order: 1.01 and 0.99.
Regarding `CC(=O)Oc1ccc(/C=C/c2cc(OC(C)=O)cc(OC(C)=O)c2)cc1`, the “PER2::LUC luminescence” value is 1.76 (time after treatment 24 h) and 1.65 (time after treatment 30 h).
For `COc1ccc(CCN)cc1OC`, in that order: 1.06 and 1.13.
With `CC1=C(O)C(=O)C=C2C1=CC=C1[C@@]2(C)CC[C@@]2(C)[C@@H]3C[C@](C)(C(=O)O)CC[C@]3(C)CC[C@]12C`, the “PER2::LUC luminescence” value was found to be 1.29 (time after treatment 24 h) and 1.15 (time after treatment 30 h).
Regarding `OC1CCCCC1N1CCC(c2ccccc2)CC1` (racemic), the “PER2::LUC luminescence” value runs as follows: (time after treatment 24 h) 0.964; (time after treatment 30 h) 0.953.
As to `CCCN1C[C@H](CSC)C[C@@H]2c3cccc4[nH]cc(c34)C[C@H]21`, the “PER2::LUC luminescence” value (time after treatment 24 h) is 0.869 and 0.875; the “PER2::LUC luminescence” value (time after treatment 30 h) is 0.878 and 0.855.
With `CCCCc1ccc(C(=O)O)nc1`, the “PER2::LUC luminescence” value by setting is: (time after treatment 24 h) 0.941; (time after treatment 30 h) 0.903.
With `CN1CC[C@]23CCCC[C@H]2[C@H]1Cc1ccc(O)cc13`, the “PER2::LUC luminescence” value by setting is: (time after treatment 24 h) 0.821; (time after treatment 30 h) 0.846.
As to `N.N.[Cl][Pt][Cl]`, the “PER2::LUC luminescence” value (time after treatment 24 h) was 0.873 and the “PER2::LUC luminescence” value (time after treatment 30 h) was 0.677.
On the same counts, the results for `CC(=O)Nc1ccc(Cc2ccc(NC(C)=O)cc2)cc1` are 1.07 and 1.
With `COc1cc(-n2c(=S)[nH]c3ccccc3c2=O)c(Cl)cc1Cl`, the “PER2::LUC luminescence” value runs as follows: (time after treatment 24 h) 0.895; (time after treatment 30 h) 0.877.
On the same counts, the results for `Oc1ccc2c3c1O[C@H]1c4[nH]c5c(c4C[C@@]4(O)[C@@H](C2)N(CC2CC2)CC[C@]314)C[C@@]1(O)[C@H]2Cc3ccc(O)c4c3[C@@]1(CCN2CC1CC1)[C@H]5O4` are 1.1 and 1.07.
Consider `O=C(O[C@H]1C[C@H]2CC[C@@H](C1)[N+]21CCCC1)C(O)(c1ccccc1)c1ccccc1`, for which the “PER2::LUC luminescence” value is, setting by setting: (time after treatment 24 h) 0.95; (time after treatment 30 h) 0.776.
Take `Cc1[nH]c2ccc(O)cc2c1CCN`: the “PER2::LUC luminescence” value by setting is: (time after treatment 24 h) 1.08 and 1.05; (time after treatment 30 h) 0.977 and 1.35.
`C=CCN1CCc2cccc3c2[C@H]1Cc1ccc(O)c(O)c1-3`: the “PER2::LUC luminescence” value is, setting by setting: (time after treatment 24 h) 0.895; (time after treatment 30 h) 0.779.
Consider `NC(=O)[C@@H]1CCCN1C(=O)[C@H](Cc1ccccc1)NC(=O)[C@@H]1CCCN1C(=O)[C@@H](N)Cc1ccc(O)cc1`, for which the “PER2::LUC luminescence” value (time after treatment 24 h) was 1.01 and the “PER2::LUC luminescence” value (time after treatment 30 h) was 0.94.
For `COc1ccc(C(=O)N2CCCC2=O)cc1`, in that order: 0.979 and 0.999.
On the same counts, the results for `CCCCCCCCCCCCCC(=O)O[C@@H]1[C@@H](C)[C@@]2(O)[C@@H](C=C(CO)C[C@]3(O)C(=O)C(C)=C[C@@H]23)[C@@H]2C(C)(C)[C@]12OC(C)=O` are 1.26 and 1.12.
With `O=C1/C(=C/c2ccccc2)C[C@@]2(O)[C@H]3Cc4ccc(O)c5c4[C@@]2(CCN3CC2CC2)[C@H]1O5`, the “PER2::LUC luminescence” value runs as follows: (time after treatment 24 h) 0.553; (time after treatment 30 h) 0.22.
For `CCS(=O)(=O)Nc1cccc(C(=C2CCCCC2)c2cnc[nH]2)c1`, the “PER2::LUC luminescence” value amounted to 1.12 (time after treatment 24 h) and 1.2 (time after treatment 30 h).
Take `O=Cc1cn(Cc2ccc(Cl)cc2)c2ccccc12`: the “PER2::LUC luminescence” value runs as follows: (time after treatment 24 h) 0.923; (time after treatment 30 h) 0.941.
On the same counts, the results for `CC[C@@]1(O)C[C@H](O)c2c(cc3c(c2O)C(=O)c2c(O)ccc(O)c2C3=O)[C@H]1C(=O)OC` are 0.79 and 1.05.
With `O=C(O)CCCc1ccc(N(CCCl)CCCl)cc1`, the “PER2::LUC luminescence” value (time after treatment 24 h) is 0.947 and 1.07; the “PER2::LUC luminescence” value (time after treatment 30 h) is 1.12 and 0.959.
On to `NCC(CS(=O)(=O)O)c1ccc(Cl)cc1` (configuration not stated), for which the “PER2::LUC luminescence” value was found to be 0.909 (time after treatment 24 h) and 1.05 (time after treatment 30 h).
As to `COC(=O)[C@@H]1C[C@H](OC(C)=O)C(=O)[C@H]2[C@@]1(C)CC[C@H]1C(=O)O[C@H](c3ccoc3)C[C@]21C`, the “PER2::LUC luminescence” value is, setting by setting: (time after treatment 24 h) 1.08; (time after treatment 30 h) 0.999.
